Laboratory results from PubChem BioAssay AID1240 (Sanford-Burnham Center for Chemical Genomics, 2008).
Several values for one entry are separate records, joined by “and”; a condition that tells them apart may be missing. Identical values can stand only once. Out of some 50,000 compounds screened, about 800 (1.6%) showed an effect of 50% or more. This is one part of the list.

Each compound was assayed against Bcl-2-like protein 10 (Homo sapiens) (UniProt Q9HD36) (assay: TR3 peptide-Bcl-B binding displacers, biochemical primary FP assay, phenotype converters (AID 1240;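 also: 0% = Bcl-B with tracer peptide and DMSO and 100% = tracer peptide lacking Bcl-B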)). Conditions: GST-Bcl-B / FITC-TR3 peptide fluorescence polarization; stronger effect = higher value; compound at 3.75 mg/L.
Sequence of UniProt Q9HD36 (Q9HD36 whole entry, looked up): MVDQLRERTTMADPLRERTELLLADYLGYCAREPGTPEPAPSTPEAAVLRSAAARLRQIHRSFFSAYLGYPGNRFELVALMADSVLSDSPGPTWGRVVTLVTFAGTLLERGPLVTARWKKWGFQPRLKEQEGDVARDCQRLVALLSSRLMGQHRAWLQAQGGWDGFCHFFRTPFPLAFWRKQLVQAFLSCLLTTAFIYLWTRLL

| SMILES | displacement |
| --- | --- |
| CN(C)CCOC(=O)C12CC3CC(C1)CC(C(=O)OCCN(C)C)(C3)C2 | 15.7% |
| C=CCN1C(=O)C(Cc2ccc(Br)cc2)S/C1=N\N=C\c1cccs1 (centres undefined) | 12.9% |
| O=C(Nc1ccccc1)c1ccc(Cl)c(Cl)c1 | -3.3% |
| Clc1ccc2oc(-c3ccccc3Cl)nc2c1 | -5.8% |
| O=C(c1ccc([N+](=O)[O-])cc1)N1CCN(Cc2cccc(Oc3ccccc3)c2)CC1 | -2.9% |
| Cc1oc(C(C)(C)C)cc1C(=O)Nc1ccc(N(C)C)cc1 | 1.6% |
| O=C(c1c(Cl)cccc1Cl)N(Cc1ccccc1)c1ccccn1 | 17.7% |
| O=C(O)c1ccc(NCc2cccs2)cc1 | 13.9% |
| O=C(Nc1sc2c(c1C(=O)O)CCCCC2)c1ccccc1Cl | 20% |
| Cc1ccccc1C(=O)N=Nc1c(O)n(CN(C)C)c2ccccc12 | -7.4% |
| CC1=CC(C)C2COC(c3cccnc3)C1C2C (centres undefined) | 3.2% |
| CN1C2C=C(N(CCc3c[nH]c4ccccc34)C(=O)c3cc(Cl)cc(Cl)c3)CC1CC2 (centres undefined) | -4% |
| CC(C)COc1ccc(C(=O)N/C(=C/c2ccc3c(c2)OCO3)C(N)=O)cc1 | 2.9% |
| COC(=O)C1=C(C)N(c2ccccc2)/C(=C\c2ccc(OCC(=O)Nc3ccccc3OC)cc2)C1=O | 55.5% |
| Cc1c(N(C(=O)c2ccc(N)cc2)C(C)C)c(=O)n(-c2ccccc2)n1C | 4.9% |
| Cc1nn(Cc2ccccc2)c(C)c1S(=O)(=O)O | -6.1% |
| CCOC(=O)c1ccc(NC(=O)C2CCCN2S(=O)(=O)c2ccc(C)cc2)cc1 (centres undefined) | 1.2% |
| O=C(Nc1ccc(-c2nc3ccccc3[nH]2)cc1)c1ccc(Cl)c(Cl)c1 | 3.8% |
| O=C1NN(c2ccccc2)C(=O)/C1=C/c1ccc(-c2cccc([N+](=O)[O-])c2)o1 | -27.5% |
| CCOC(=O)c1c(NC(=O)CCN2CCCC2)sc2c1CC(C)(C)OC2 | -6.7% |
| CCN(C(=S)NC(=O)c1cccnc1)c1ccccc1 | 10.6% |
| COc1ccc2ccccc2c1/C=C1\SC(=S)N(C2CCCCC2)C1=O | -2.7% |
| Cc1ccc(-n2nc3cc(C)c(NC(=O)COc4ccc([N+](=O)[O-])cc4)cc3n2)cc1 | -3.8% |
| C=C(C)c1cccc(C(C)(C)NC(=O)NC2CCCC2)c1 | 1.8% |
| CC(Nc1cc(N2CCN(C)CC2)ccc1[N+](=O)[O-])C12CC3CC(CC(C3)C1)C2 (centres undefined) | 1.9% and 15.8% |
| CCOC(=O)c1c(C)sc(Sc2ccccc2[N+](=O)[O-])c1OC(C)=O | -6.6% |
| COC(=O)C(NC(=O)c1ccc(C)cc1)C12CC3CC(CC(C3)C1)C2 (centres undefined) | -3% |
| O=C(Nc1ccccc1)c1ccccc1NC(=O)c1ccccc1C(=O)O | 0.4% |
| Cc1ccc(NC(=S)NCCOc2ccccc2Cc2ccccc2)c(C)c1 | 9.9% |
